The whole screen tested about 310,000 compounds, of which about 2,200 (0.71%) showed an effect of 50% or more. Effects have a minus sign here. The list shows a part of the results.
Each molecule was assayed against human ether-à-go-go-related gene (hERG) potassium channel (human, UniProt Q12809) (assay: primary screen, population patch clamp on CHO cells stably expressing hERG).
human ether-à-go-go-related gene (hERG) potassium channel, sequence (Q12809 whole entry, looked up): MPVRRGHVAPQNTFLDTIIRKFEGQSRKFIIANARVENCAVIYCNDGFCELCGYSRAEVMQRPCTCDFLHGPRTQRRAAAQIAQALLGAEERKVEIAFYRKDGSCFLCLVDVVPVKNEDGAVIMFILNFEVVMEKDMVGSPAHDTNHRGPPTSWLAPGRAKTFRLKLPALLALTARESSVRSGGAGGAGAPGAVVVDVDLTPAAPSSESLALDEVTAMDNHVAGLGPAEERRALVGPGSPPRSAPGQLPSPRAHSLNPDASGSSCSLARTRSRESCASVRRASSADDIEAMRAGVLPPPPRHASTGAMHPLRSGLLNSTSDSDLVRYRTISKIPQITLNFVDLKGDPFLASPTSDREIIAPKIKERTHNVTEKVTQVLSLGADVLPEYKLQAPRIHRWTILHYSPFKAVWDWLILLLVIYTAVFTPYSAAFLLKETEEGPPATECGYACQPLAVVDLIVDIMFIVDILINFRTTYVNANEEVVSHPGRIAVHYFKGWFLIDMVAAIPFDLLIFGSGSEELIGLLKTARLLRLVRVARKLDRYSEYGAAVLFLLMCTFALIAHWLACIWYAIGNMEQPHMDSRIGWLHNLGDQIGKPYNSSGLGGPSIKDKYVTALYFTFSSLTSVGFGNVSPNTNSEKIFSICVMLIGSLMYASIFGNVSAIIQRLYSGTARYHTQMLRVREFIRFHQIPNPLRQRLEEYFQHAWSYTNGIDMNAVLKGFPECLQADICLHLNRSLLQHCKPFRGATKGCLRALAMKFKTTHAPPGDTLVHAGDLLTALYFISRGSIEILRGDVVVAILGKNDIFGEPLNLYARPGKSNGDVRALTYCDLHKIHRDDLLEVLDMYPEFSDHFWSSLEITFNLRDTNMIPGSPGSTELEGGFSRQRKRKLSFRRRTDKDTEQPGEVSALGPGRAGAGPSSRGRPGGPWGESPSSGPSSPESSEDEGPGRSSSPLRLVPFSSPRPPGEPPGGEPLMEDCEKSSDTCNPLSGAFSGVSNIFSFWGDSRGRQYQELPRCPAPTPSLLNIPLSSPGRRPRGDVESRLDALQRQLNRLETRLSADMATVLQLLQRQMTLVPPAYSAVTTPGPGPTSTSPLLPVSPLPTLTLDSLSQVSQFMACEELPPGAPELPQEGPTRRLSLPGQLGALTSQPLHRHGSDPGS

Row | SMILES | hERG current change (%, negative = inhibition) at 1uM [%]
1 | Cc1c(C(=O)NCC(c2ccco2)N(C)C)oc2c(Cl)cccc12 (stereo not drawn) | -1.19
2 | CCCCCCN1CC(O)=C(c2ccccc2)C1=N | -0.417
3 | COc1ccc(F)cc1S(=O)(=O)NC1CCCC1 | 10.9
4 | O=C(O)CCC(=O)NNC(=O)COc1ccc(Cl)cc1Cl | 8.98
5 | C(=C\c1cc(/C=C/c2ccccc2)ncn1)/c1ccccc1 | 21.9
6 | COc1ccccc1CN1C(=O)[C@@H]2Cc3c([nH]c4ccccc34)C(C)(C)N2C1=O | 12.9
7 | CCOC(=O)c1ccccc1N/C=C/C(=O)c1cccs1 | -3.11
8 | COCc1cc(C)nc(Nc2ccccc2OC)c1C#N | 10.7
9 | Cn1c(=O)cc(SCC(=O)NCC2CCCO2)c2ccc(Cl)cc21 (stereo not drawn) | 6.95
10 | COc1cccc(NC(=O)CSc2nnc(NC(=O)C3CCC3)s2)c1 | 19.7
11 | COc1cc(S(=O)(=O)NC2CCCCC2C)ccc1Cl (stereo not drawn) | 6.21
12 | COCCN(C(=S)Nc1ccc(C)cc1C)C(C)c1ccco1 (stereo not drawn) | 5.6
13 | CCCn1c(SCC(=O)Nc2ccccc2Cl)n[nH]c1=O | 1.69
14 | CCOC(=O)c1cc(-c2ccccc2)sc1NC(=O)c1cc(OC)c(OC)c(OC)c1 | 6.59
15 | COc1ccc2c(C)cc3nnnn3c2c1 | 4.58
16 | O=[N+]([O-])c1cc(/C=N/N2CCN(Cc3ccccc3)CC2)ccc1Cl | 8.7
17 | O=C(CN1C(=O)/C(=C/c2ccccc2F)Sc2ccccc21)NCCCN1CCOCC1 | -6.97
18 | Cc1ccc(Cn2nnc3c(=O)[nH]c(C4CCN(S(=O)(=O)Cc5ccccc5)CC4)nc32)cc1 | 10.2
19 | CC(=O)Nc1ccc(-c2nn[nH]n2)cc1Cl | 10.6
20 | Cc1ccc2nc(-c3ccccc3)cc(C(=O)O)c2c1 | 8.03
21 | C=CCC(=O)N1CCCC(CNC(=O)c2ccc(-c3ccccc3)cc2)C1 (stereo not drawn) | -0.875
22 | Cc1c(C(=O)Nc2ccc(S(=O)(=O)N(C)C3CCN(C)CC3)cc2)oc2ccccc12 | 3.99
23 | COc1cccc(C2=NOC(C(=O)NCCN3CCOCC3)C2)c1 (stereo not drawn) | 6.33

Row | SMILES | hERG current change (%, negative = inhibition) at 1uM [%]
24 | Cn1cc([N+](=O)[O-])c(C(=O)Nc2ccc3nc(-c4ccccc4)[nH]c3c2)n1 | 4.88
25 | NS(=O)(=O)Cc1noc2ccccc12 | 11.6
26 | O=C(Nc1ccccc1Cc1ccccc1)c1oc2ccccc2c1COc1ccccc1 | 12.7
27 | Cc1cccc(-n2c(SCC(N)=O)nc3c(c2=O)C2(CCCCC2)Cc2ccccc2-3)c1 | 6.74
28 | CC(=O)CC(C)(C)Nc1nc2cc([N+](=O)[O-])ccc2o1 | 11.6
29 | CCOC(=O)c1c(NC(NC(C)=O)C(Cl)(Cl)Cl)sc(C(C)=O)c1C (stereo not drawn) | 13.3
30 | CC(=O)Nc1ccc(NC(=S)NC(=O)c2cc3ccccc3o2)cc1 | 11
31 | COc1ccc(-c2[nH]ncc2CN(C)Cc2ccccn2)c(OC)c1 | -4.12
32 | COc1ccc(C)cc1NC(=O)CSc1nnc(-c2cc3cccc(OC)c3o2)n1N | 16.6
33 | CC1CCN(C(=O)CSc2nnc(N)s2)CC1 | 10.8
34 | Fc1cccc(Cl)c1CSc1nnc2ccccn12 | 12.3
35 | Cc1cccnc1NC1OC(=O)c2ccccc21 (stereo not drawn) | 8.78
36 | COc1ccc(CCC(=O)Nc2ccc(S(=O)(=O)N3CCCC3)cc2)cc1OC | 4.82
37 | COc1cc(S(=O)(=O)NC2CCSc3ccccc32)ccc1NC(C)=O (stereo not drawn) | 17.4
38 | CC1(C)S[C@@H]2[C@H](NC(=O)COc3ccccc3)C(=O)N2C1C(=O)OCC1CCCCC1 (stereo partly drawn) | 8.97
39 | Cc1ccccc1-n1c(CSC(=N)N)nc2ccccc2c1=O.Cl | 10.6
40 | Cc1cccc(SC2CCN(Cc3nc(CC4CC4)no3)CC2)c1 | 4.44
41 | CCCn1c(N)[n+](CC(=O)c2ccco2)c2ccccc21.[Br-] | 7.08
42 | COc1ccc(OCc2nnc(SCC(=O)Nc3ccccc3F)o2)cc1 | 9.17
43 | O=C(CSc1nc2ccccc2c(=O)[nH]1)c1ccc(O)c(O)c1 | -5.29
44 | O=C(Cn1cnc2ccccc2c1=O)NCCC(=O)Nc1ccc(F)cc1 | 19.3
45 | COC(=O)c1ccc(/C=C2\Oc3ccccc3NC2=O)cc1 | 11.7
46 | COc1ccc2nc(N/C(N)=N/C(=S)Nc3ccccc3)nc(C)c2c1 | 16.2

Row | SMILES | hERG current change (%, negative = inhibition) at 1uM [%]
47 | COc1cc(C(=O)NCc2nnc(SCC(=O)N3CCCC3)o2)cc(OC)c1OC | 16.9
48 | CC(=O)c1ccc(-c2cccc(-c3nc4ccccn4c3NC3CCCCC3)c2)cc1.O=C(O)C(F)(F)F | 10.5
49 | C/C(CC(=O)NCc1ccc(Cl)cc1)=N\NC(=O)c1ccccc1F | 8.84
50 | O=C(CSc1nnc(-c2cccnc2)o1)N1CCCCC1 | 12.6
51 | Brc1cnc(N2CCCCC2)nc1N1CCOCC1 | 6.67
52 | O=C(O)C(=O)O.c1ccc(-c2ccccc2OCCCN2CCCCCC2)cc1 | -52.7
53 | Cc1ccc(C(=O)/C=C/Nc2ccc(S(=O)(=O)Nc3onc(C)c3C)cc2)cc1 | 7.31
54 | COc1ccc(NC(=O)C23CC4CC(C2)CC(n2cnc(Br)n2)(C4)C3)cc1Cl | -3.2
55 | COc1ccc(C(=O)NCC(=O)NCC(c2ccco2)N(C)C)cc1OC (stereo not drawn) | 3.86
56 | CCOC(=O)c1cc(NC(=O)N(CC)CC)c(C)nc1C | 4.59
57 | COc1ccc(OC)c(C(=O)c2c(C)oc3cc(Br)c(O)c(CN(C)C)c23)c1.Cl.O | -0.292
58 | Cc1cc(C)cc(NC(=O)CN(C)S(=O)(=O)c2cnc[nH]2)c1 | 15.4
59 | CC(=O)c1c(C)[nH]c(C(=O)OCC(=O)N2CC(=O)Nc3ccccc32)c1C | 9
60 | Cc1ccc(C)c(S(=O)(=O)N/N=C2/CCCc3ccccc32)c1 | 9.92
61 | Cc1ccc(F)cc1CNC(=O)C1CCC(=O)N(CC2CCCCC2)C1 (stereo not drawn) | 20.5
62 | COc1ccccc1NC(=O)Nc1ccccc1C(N)=O | 9.63
63 | CN(CC(=O)Nc1ccc(F)c(F)c1)S(=O)(=O)c1cccc2nsnc12 | -1.55
64 | COc1ccccc1C(=O)N/C(=C\c1ccc(Br)cc1)C(=O)N1CCCC1 | -1.22
65 | Cc1ccc(S(=O)(=O)Nc2nc(C)c(C(=O)NNS(=O)(=O)c3ccccc3)s2)cc1 | 9.71
66 | CC(=O)c1ccc(NC(=S)N2CCC(Cc3ccccc3)CC2)cc1 | 15.2
67 | Cc1ccc2c(c1)nnn2C1CCN(CC(=O)NCCc2nc3ccccc3[nH]2)CC1 | -4.28
68 | COc1cccc2cc(C(N)=O)/c(=N\NC(=O)c3ccccc3)oc12 | 17.8
69 | COc1ccccc1N1CCN(C(=O)CCC(=O)N2CCN(c3ccccc3OC)CC2)CC1 | 13.4

Row | SMILES | hERG current change (%, negative = inhibition) at 1uM [%]
70 | CCOc1c(CNc2nnnn2C)cccc1OC | 8.02
71 | Cc1ccc(C)c(NC(=O)c2ccc(OCc3c(C)noc3C)cc2)c1 | -0.0437
72 | NC(=O)NC(CC(=O)NCc1ccc2c(c1)OCO2)c1ccccc1Cl (stereo not drawn) | 19.8
73 | COc1ccc(OCC(=O)N/N=C(\C)c2cccs2)cc1 | 11.7
74 | C=CCN(CC#CCOc1ccccc1OC)CC=C.O=C(O)C(=O)O | 7.54
75 | Cc1nn(-c2ccccc2)c(C)c1/C=N/NC(=O)CSc1nc2ccccc2c(=O)n1-c1ccccc1 | 7.63
76 | Cc1ccc(-c2nn(-c3ccccc3)cc2/C=N/NC(=O)c2ccncc2)o1 | 10.8
77 | CCCCC(=O)Nc1ccccc1C#N | 11.1
78 | COc1ccc(Nc2nc(NCC3CCCO3)nc(N)c2[N+](=O)[O-])cc1 (stereo not drawn) | 2.2
79 | CCc1ccc(NC(=O)Cc2ccc(OC)cc2)cc1 | 11.1
80 | CCCC12C(=O)C(C)(C(c3ccccc3)=C1c1ccccc1)C1C(=O)N(c3ccc(C)cc3)C(=O)C12 (stereo not drawn) | -0.609
81 | O=C(/C=C/c1ccccc1)Nc1nc(-c2ccncc2)cs1 | 4.02
82 | CC(Oc1ccc(Cl)cc1)C(=O)N/N=C/c1ccsc1 (stereo not drawn) | 8.98
83 | CC1(C)Cc2c(sc3nc(SCC(=O)NCc4ccccc4)n(-c4ccccc4)c(=O)c23)CS1 | 6.37
84 | CCOc1ccc(CN(C(=O)c2cccs2)C2CCS(=O)(=O)C2)cc1 (stereo not drawn) | 18
85 | CCOc1ccc(C(=O)Nc2ncccc2Cl)cc1.Cl | 15.2
86 | Cc1nnsc1C(=O)NNC(=O)Nc1ccccc1 | 9.66
87 | O=C(OC1CCOC1=O)c1ccc(CO)cc1 (stereo not drawn) | 15
88 | Cc1cccc(NC(=O)CSc2ccc(-c3ccco3)nn2)c1 | -0.275
89 | CSc1ccccc1C(=O)N1CCCCC1 | 0.118
90 | CN(C)c1nc(Cl)nc(NCCOc2ccccc2)n1 | 6.37
